According to a collection of fitness landscapes (doi:10.1016/j.celrep.2020.107928):
The full ranking holds about 81,000 sequences; the median of “one-hybrid fitness for binding parS DNA” is about -0.17, and the highest 2% start at about 0.51. Some of the results follow.

B1: Caulobacter ParB omega fusion; a variant is named by its letters at X, in order, B8GW30 (parent)
chain: MESVVVGEPGMSEGRRGLGRGLSALLGEVDAAPAQAPGEQLGGSREAPIEILQRNPDQPRRTFREEDLEDLSNSIREKGVLQPILVRPSPDTAGEYQIVAGERAWRAAQRAGLKTVPIMVRELDDLAVLEIGIIENVQRADLNVLEEALSYKVLMEKFERTQENIAQTIGKSXSHVANXMRLLXLPDEVQSYLVSGELTAXHARAIAAAADPVALAKQIIEGGLSVRETEALARKAPNLSAGKSKGGRPPRVKDTDTQALESDLSSVLGLDVSIDHRGSTGTLTITYATLEQLDDLCNRLTRGI

Variants of: B1
Experiment: one-hybrid fitness for binding parS DNA (scaled: cognate 1, non-cognate 0); higher = stronger binding
Details: with parS DNA site
Summary of the method: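 Pre- and post-selection plasmids were Illumina-sequenced, three replicate libraries were pooled, and any variant with under 10 reads was removed. The libraries were Caulobacter ParB with four specificity codons randomised, selected in E. coli USO through a HIS3 reporter whose site is 19 bp from the promoter. Cells grew 48 hours at 37°C on M9 without histidine, with 0.1 mM IPTG and 5 mM 3-AT. Fitness is the log change in variant-to-wild-type read ratio, rescaled against cognate and non-cognate.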

one-hybrid fitness for binding parS DNA, 0.244:
RYKW

one-hybrid fitness for binding parS DNA, 0.3:
RREN

one-hybrid fitness for binding parS DNA, 0.965:
RCVC

one-hybrid fitness for binding parS DNA, 0.223:
RHEQ

one-hybrid fitness for binding parS DNA, 0.99:
RQQG

one-hybrid fitness for binding parS DNA, ≤ 0.2:
LLGV
QVFT
LNWG
AQQT
NDPH
NSVK
LDVC
LHVC
RNNH
GCAT
QHTW
PREE
WPHC
QKLP
GRQV
QHSC
LHMH
WAWC
CNSN
YCLS
QESN
QVDM
GQTQ
HINI
LAEC
NDFT
PPGL
CRWS
LEYW
QDYF
NGNT
STNV
KKNS
VDGR
TAQV
HSID
CRKM
THEM
KSHR
LTYC
QTVQ
SRNV
YVPE
EMTK
CCTR
QCKC
QKAY
TPYL
NTEP
GQTV
NRHV
METL
IVLS
QPCS
QRFR
WIAN
HQYS
MQAN
KYWR
LTYW
RCPR
LEEK
NLIR
IAAE
PLCI
EMDS
QKMY
VHYF
AQAC
AADN
GYHS
HRET
QTQY
MTFR
ARKK
LDSN
WSQG
NMPS
IQTC
QKDM
DHMC
MRPF
TKIC
HAPF
MWRH
TQLG
WQGS
RPVS
ITMR
QYVY
TKAM
RIMK
PRPI
TCYS
DVRT
MSFP
AVDW
CVNP
QDSG
DVST
PPER
LVMS
PAWA
KLAF
IYMF
QDTF
GTHL
LCAH
QPWH
PRQS
TPSP
ANPR
PDLQ
LSRM
QWQV
IKRQ
FGSA
TVTQ
YSYC
QMEC
FTLM
SNQY
AFRA
RAFD
CALR
QGRK
PNSN
AHNM
SMLF
QTSE
TMVC
KQQR
VLIV
SVFG
QCID
VLER
TSVY
LYMF
ANRR
SKPE
SECF
VRFL
YMSR
HELT
TFKL
TSCT
EHYS
PSLG
SRIW
RLTD
SGFM
YSRG
HMVT
RNVV
AETF
ITNV
HPRW
TGDR
LRSY
THIP
MEYY
IHER
GVLS
LRRS
VATQ
FFGC
RAWK
PSMD
PFRT
HHGG
ARDM
IICT
VMIR
SMSR
YVSA
VHVT
CSFG
VTMS
RMSV
VQSI
FNCR
ANTG
NGSA
GDDA
QYWG
QWHC
PFAQ
QVCQ
YHTC
PFHM
SGHA
REEE
KLKV
QRYP
MKAS
VSEN
VCVL
MQSI
PAKQ
RFGE
KARY
HMVR
PVSG
PASE
TIIS
ATKK
QMNR
VLVT
RCDD
QKKA
RFVP
YAMK
PQAM
EFSG
RYKH
SFTN
MYFT
MSPV
RFQW
VKKW
RFDL
QLTC
ESRY
VRYF
SKDI
QWRY
LHPS
VGPT
SSQM
RDDY
DTHF
TVKG
PRWA
KQGK
LSSM
KYVI
QCDR
RCRV
NPYL
YDNA
RWMP
MSGS
AMRR
VNVS
RGFE
HINC
WLFS
CELG
LYSD
KLTF
HRFR
DRHI
MPTN
AAKA
DGWT
AAIS
RQWI
TQRH
IIWR
SNRP
YALW
KRTI
NNPR
YGRS
YVPG
IDSR
TWWS
EAYV
IVTS
KMWG
RNSQ
SIED
TQPD
EILT
STSP
RAHK
PRMS
AIQV
HLPW
SNPD
HNDY
DTRM
LTEF
QCHN
FLPD
QTNC
LKHP
MSMP
ENYV
PSSR
SYFG
FRRG
LWHW
SIRC
SNFG
TRAS
TAWP

one-hybrid fitness for binding parS DNA, 0.819:
RQKT

one-hybrid fitness for binding parS DNA, 0.203:
RCPM

one-hybrid fitness for binding parS DNA, 0.798:
RYRC

one-hybrid fitness for binding parS DNA, 0.966:
RCNG
